7 molecules from ChEMBL document CHEMBL1961873, “Compounds: GSK PKIS; Assays: Nanosyn kinase panel” (2012) can be followed below.

For some of these results: The strong results were mostly taken out for another list; the other results follow. The list shows a part of the results, in another mix than the full data.

The target of experiment [1] is Serine/threonine-protein kinase 26 (Homo sapiens) (UniProt Q9P289). The following applies: at 1 µM.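 Note: mean inhibition of MST4 kinase activity, reported from the GSK PKIS inhibitor-set screening panel.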
Chain of UniProt Q9P289 (Q9P289 whole entry, looked up): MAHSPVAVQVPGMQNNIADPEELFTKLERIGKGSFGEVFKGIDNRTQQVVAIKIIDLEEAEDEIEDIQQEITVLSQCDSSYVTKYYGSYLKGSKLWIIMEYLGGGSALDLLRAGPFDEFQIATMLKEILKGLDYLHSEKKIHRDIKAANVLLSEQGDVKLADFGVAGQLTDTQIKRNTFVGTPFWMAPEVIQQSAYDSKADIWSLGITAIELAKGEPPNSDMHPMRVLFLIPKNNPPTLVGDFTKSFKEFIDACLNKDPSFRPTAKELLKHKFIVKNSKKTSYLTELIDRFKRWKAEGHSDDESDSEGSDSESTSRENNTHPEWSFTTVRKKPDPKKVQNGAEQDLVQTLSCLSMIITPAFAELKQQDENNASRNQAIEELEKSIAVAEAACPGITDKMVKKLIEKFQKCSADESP
The target in experiment [2] is Serine/threonine-protein kinase PAK 1 (Homo sapiens) (UniProt Q13153). The following applies: at 0.1 µM.
Chain of UniProt Q13153 (Q13153 whole entry): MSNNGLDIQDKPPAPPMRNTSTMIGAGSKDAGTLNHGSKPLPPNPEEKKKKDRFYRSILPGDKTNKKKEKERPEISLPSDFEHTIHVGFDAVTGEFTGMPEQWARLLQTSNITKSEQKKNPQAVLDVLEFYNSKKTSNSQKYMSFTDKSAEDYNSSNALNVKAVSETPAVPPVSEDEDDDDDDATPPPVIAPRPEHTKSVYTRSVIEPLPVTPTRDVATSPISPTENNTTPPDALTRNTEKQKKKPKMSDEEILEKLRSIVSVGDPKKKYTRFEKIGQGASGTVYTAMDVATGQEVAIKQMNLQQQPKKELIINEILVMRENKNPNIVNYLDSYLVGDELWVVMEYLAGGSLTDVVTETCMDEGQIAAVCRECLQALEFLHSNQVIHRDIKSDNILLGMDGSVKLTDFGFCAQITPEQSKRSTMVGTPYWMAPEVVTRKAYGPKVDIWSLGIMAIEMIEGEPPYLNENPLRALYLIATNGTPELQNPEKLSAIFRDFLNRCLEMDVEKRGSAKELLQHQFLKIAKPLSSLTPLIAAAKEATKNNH
Experiment [3] shares this target. The following applies: at 1 µM.
Experiment [4] addresses Serine/threonine-protein kinase PAK 2 (Homo sapiens) (UniProt Q13177). The following applies: at 0.1 µM.
Chain of UniProt Q13177 (Q13177 whole entry): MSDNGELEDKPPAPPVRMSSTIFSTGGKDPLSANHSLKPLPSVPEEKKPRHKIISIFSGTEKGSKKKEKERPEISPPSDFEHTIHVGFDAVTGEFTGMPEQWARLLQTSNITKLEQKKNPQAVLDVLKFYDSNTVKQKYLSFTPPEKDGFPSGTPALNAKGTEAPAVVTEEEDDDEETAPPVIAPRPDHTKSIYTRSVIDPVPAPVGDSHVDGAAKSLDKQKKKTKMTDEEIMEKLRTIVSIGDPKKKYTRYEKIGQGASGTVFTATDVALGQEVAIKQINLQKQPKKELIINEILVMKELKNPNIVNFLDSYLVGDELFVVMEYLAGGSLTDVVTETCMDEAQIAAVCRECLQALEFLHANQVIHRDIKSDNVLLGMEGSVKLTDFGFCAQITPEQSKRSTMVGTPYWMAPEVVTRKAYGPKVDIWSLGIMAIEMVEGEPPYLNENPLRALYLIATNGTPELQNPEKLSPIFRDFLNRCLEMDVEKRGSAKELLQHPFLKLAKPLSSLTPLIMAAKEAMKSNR
The target is the same in experiment [5]. The following applies: at 1 µM.
For experiment [6], the target named is Serine/threonine-protein kinase PAK 3 (Homo sapiens) (UniProt O75914). The following applies: at 0.1 µM.
Chain of UniProt O75914 (O75914 whole entry, looked up): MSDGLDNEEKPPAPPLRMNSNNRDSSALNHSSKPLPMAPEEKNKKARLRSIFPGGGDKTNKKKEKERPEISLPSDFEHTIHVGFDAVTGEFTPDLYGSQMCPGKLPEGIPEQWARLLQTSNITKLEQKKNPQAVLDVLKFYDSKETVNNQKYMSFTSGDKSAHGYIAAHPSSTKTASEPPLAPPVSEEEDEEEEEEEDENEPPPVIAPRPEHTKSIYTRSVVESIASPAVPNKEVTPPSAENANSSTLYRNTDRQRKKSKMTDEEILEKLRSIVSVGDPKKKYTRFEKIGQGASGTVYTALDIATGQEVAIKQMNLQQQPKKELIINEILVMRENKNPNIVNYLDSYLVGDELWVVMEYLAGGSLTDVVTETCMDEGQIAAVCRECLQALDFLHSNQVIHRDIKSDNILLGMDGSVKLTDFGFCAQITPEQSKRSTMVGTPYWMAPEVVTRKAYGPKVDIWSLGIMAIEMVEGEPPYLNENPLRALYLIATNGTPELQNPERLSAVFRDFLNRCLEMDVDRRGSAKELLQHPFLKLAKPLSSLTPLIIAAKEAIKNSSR
For experiment [7] the target is unchanged. The following applies: at 1 µM.
Experiment [8] concerns the target Serine/threonine-protein kinase PAK 5 (Homo sapiens) (UniProt Q9P286). The following applies: at 0.1 µM.
Chain of UniProt Q9P286 (Q9P286 whole entry, looked up): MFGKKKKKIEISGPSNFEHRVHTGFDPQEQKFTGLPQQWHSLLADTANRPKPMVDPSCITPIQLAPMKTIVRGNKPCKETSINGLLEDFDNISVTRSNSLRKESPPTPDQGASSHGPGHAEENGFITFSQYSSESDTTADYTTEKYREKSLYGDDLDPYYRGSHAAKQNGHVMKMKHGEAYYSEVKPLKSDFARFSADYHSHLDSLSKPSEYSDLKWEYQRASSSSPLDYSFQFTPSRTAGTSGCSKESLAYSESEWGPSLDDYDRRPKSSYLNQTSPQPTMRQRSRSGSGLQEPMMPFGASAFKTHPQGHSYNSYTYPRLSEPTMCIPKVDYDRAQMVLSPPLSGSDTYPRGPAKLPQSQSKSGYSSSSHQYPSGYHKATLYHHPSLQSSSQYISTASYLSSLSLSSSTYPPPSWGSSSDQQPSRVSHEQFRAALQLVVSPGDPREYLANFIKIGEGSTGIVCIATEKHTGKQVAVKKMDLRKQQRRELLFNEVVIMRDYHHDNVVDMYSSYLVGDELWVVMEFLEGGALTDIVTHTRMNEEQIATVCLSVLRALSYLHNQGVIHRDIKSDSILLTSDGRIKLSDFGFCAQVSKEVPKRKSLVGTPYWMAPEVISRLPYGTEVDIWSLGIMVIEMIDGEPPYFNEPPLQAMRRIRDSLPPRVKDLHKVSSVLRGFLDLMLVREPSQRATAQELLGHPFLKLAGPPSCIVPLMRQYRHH
For experiment [9] the target is unchanged. The following applies: at 1 µM.
In experiment [10] the target is Serine/threonine-protein kinase PAK 6 (Homo sapiens) (UniProt Q9NQU5). The following applies: at 0.1 µM.
Chain of UniProt Q9NQU5 (Q9NQU5 whole entry, looked up): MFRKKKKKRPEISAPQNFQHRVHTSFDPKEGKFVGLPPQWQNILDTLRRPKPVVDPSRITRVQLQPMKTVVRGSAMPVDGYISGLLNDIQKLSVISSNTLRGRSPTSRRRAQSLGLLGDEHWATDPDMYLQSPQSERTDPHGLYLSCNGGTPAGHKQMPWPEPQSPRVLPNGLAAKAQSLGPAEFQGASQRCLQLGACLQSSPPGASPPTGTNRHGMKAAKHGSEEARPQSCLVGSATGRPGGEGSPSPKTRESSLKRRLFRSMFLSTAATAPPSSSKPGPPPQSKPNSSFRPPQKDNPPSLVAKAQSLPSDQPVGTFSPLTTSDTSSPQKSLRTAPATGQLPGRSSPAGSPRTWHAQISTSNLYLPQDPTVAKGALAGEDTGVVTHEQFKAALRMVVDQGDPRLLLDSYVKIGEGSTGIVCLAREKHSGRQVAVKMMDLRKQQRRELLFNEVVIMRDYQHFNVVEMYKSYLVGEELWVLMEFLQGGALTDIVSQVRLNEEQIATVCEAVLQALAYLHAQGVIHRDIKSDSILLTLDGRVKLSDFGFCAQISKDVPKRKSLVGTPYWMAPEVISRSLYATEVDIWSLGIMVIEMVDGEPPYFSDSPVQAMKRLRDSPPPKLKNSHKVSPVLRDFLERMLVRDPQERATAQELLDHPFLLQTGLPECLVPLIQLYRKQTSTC
Experiment [11] shares this target. The following applies: at 1 µM.
Experiment [12] deals with Tyrosine-protein kinase ABL1 (Homo sapiens), P00519 [E255K]. The following applies: at 0.1 µM.
The test system is the same in experiment [13]. The following applies: at 1 µM.
In experiment [14] the test system is Tyrosine-protein kinase ABL1 (Homo sapiens), P00519 [H396P]. The following applies: at 0.1 µM.
The test system is the same in experiment [15]. The following applies: at 1 µM.
For experiment [16], the system named is Tyrosine-protein kinase ABL1 (Homo sapiens), P00519 [M351T]. The following applies: at 0.1 µM.
For experiment [17] the test system is unchanged. The following applies: at 1 µM.
Experiment [18] deals with Tyrosine-protein kinase ABL1 (Homo sapiens), P00519 [Q252H]. The following applies: at 0.1 µM.
Experiment [19] shares this test system. The following applies: at 1 µM.
Experiment [20] deals with Tyrosine-protein kinase ABL1 (Homo sapiens), P00519 [T315I]. The following applies: at 0.1 µM.

A word on the inhibition: it is the change of the read-out against control, counted positive when it falls. Take `CC(C)(C)c1ccc(Oc2nccc(-c3c(-c4ccc(F)cc4)ncn3C3CCNCC3)n2)cc1`: the inhibition in [1] was -1.54%; in experiment [2], 6.43%; in [3] it was 6.13%; in [4], 1.02%; in experiment [5] it was 2.33%; in experiment [6] it was 2.9%. In addition, the inhibition in [7] was 3.34%; in [8], 4.67%; in [9], 2.75%; in experiment [10], -7.4%; in experiment [11] it was -6.91%; in experiment [12], 1.59%. Besides, the inhibition in experiment [13] turned out to be 4.17%; in experiment [14] it was 3.43%; in [15], 4.77%; in experiment [16], 1.02%; in experiment [17], 3.35%; in experiment [18] it was 3.7%. The inhibition stood at 5.19% in experiment [19] and 2.69% in [20].

Take `O=C(O)c1ccc(Oc2nccc(-c3c(-c4ccc(F)cc4)ncn3C3CCNCC3)n2)cc1`: the inhibition is 0.24% in experiment [1]; 9.33% in experiment [2]; 14.2% in experiment [3]; 3.09% in [4]; 3.5% in experiment [5]; 5.71% in [6]. In addition, the inhibition is 9.17% in experiment [7]; 5.28% in experiment [8]; 2.45% in experiment [9]; -8.62% in [10]; -0.55% in [11]; 0.44% in [12]. Moreover, the inhibition in experiment [13] is 1.58%; in experiment [14], 3.47%; in experiment [15], 3.39%; in experiment [16], 2.2%; in [17], 0.58%; in experiment [18] it was 4.14%. The inhibition in [19] came to 5.56%; in [20], 0.99%.

With `Cc1cccc(Oc2nccc(-c3c(-c4ccc(F)cc4)ncn3C3CCNCC3)n2)c1C`, the inhibition in experiment [1] is -1.91%; in experiment [2], 7.98%; in experiment [3] it was 5.85%; in experiment [4] it was 1.4%; in [5], 1.47%; in [6] it was 4.86%. Also, the inhibition in [7] is 5.21%; in experiment [8], 1.56%; in [9], 2.54%; in experiment [10], -7.57%; in experiment [11], -6.34%; in experiment [12] it was 2.57%. Further, the inhibition in experiment [13] turned out to be 3.66%; in experiment [14] it was 4.88%; in experiment [15] it was 2.84%; in experiment [16], 0.42%; in experiment [17] it was 1.41%; in experiment [18], 3.26%. Besides, the inhibition was determined as 2.5% in experiment [19] and 3.22% in experiment [20].

`CS(=O)(=O)c1ccc(Oc2nccc(-c3c(-c4ccc(F)cc4)ncn3C3CCNCC3)n2)cc1`: the inhibition in experiment [1] was -2.95%; in experiment [2], 7.47%; in experiment [3] it was 3.75%; in experiment [4], 1.73%; in [5] it was 1.12%; in experiment [6], 4.48%. The inhibition in experiment [7] was 3.6%; in experiment [8], 2.6%; in [9], 0.7%; in experiment [10] it was -3.38%; in [11], -7.17%; in experiment [12], 3.59%. The inhibition is 4.16% in experiment [13]; 4.76% in experiment [14]; 4.88% in experiment [15]; 2% in experiment [16]; 3.5% in experiment [17]; 4.49% in [18]. Moreover, the results for the inhibition in experiment [19] and in experiment [20] were 5.16% and 3.06%, respectively.

`O=C1NC(=O)C(c2ccccc2)=C1Nc1ccccc1`: the inhibition is 6.5% in experiment [1]; 6.89% in experiment [2]; 6.87% in experiment [3]; 3.42% in [4]; 3.13% in experiment [5]; 5.6% in experiment [6]. Besides, the inhibition was 6.57% in experiment [7]; 4.73% in experiment [8]; 4.32% in [9]; -4.44% in experiment [10]; -4.76% in experiment [11]; 3.1% in experiment [12]. Besides, the inhibition in experiment [13] amounted to 7.6%; in experiment [14] it was 5.19%; in [15], 9.3%; in [16] it was 1.89%; in [17], 8.42%; in [18], 5.39%. The inhibition in experiment [19] worked out at 6.71%; in experiment [20] it was 2.94%.

In the case of `COc1ccccc1Oc1nccc(-c2c(-c3ccc(F)cc3)ncn2C2CCNCC2)n1`, the inhibition is 8.06% in experiment [1]; 5.34% in experiment [2]; 6.28% in experiment [3]; 1.72% in [4]; 1.81% in experiment [5]; 5.72% in [6]. In addition, the inhibition in experiment [7] is 6.6%; in experiment [8], -0.33%; in experiment [9], -0.66%; in [10], -6.9%; in experiment [12], 1.9%; in [13], 2.74%. Also, the inhibition in experiment [14] was 5.02%; in experiment [15] it was 5.18%; in experiment [16], -1.59%; in experiment [17], 2.32%; in [18], 3.57%; in experiment [19], 4.17%. Besides, the inhibition in experiment [20] turned out to be 2.9%.

For `Fc1ccc(Oc2nccc(-c3c(-c4ccc(F)cc4)ncn3C3CCNCC3)n2)cc1`, the inhibition in experiment [1] stood at 1.32%; in experiment [2], 8.41%; in [3] it was 8.5%; in experiment [4], 1.93%; in experiment [5], 3.24%; in experiment [6], 5.55%. Moreover, the inhibition was 8.51% in experiment [7]; 5.49% in [8]; 2.65% in [9]; -8.91% in [10]; -1.21% in experiment [11]; -4.08% in experiment [12]. Further, the inhibition is 0.35% in experiment [13]; 2.33% in experiment [14]; 2.64% in experiment [15]; 0.1% in [16]; 0.1% in experiment [17]; 1.9% in [18]. Also, the inhibition in [19] was 0.73%; in experiment [20] it was -1.07%.
